This list was built around the results that the source calls inconclusive (neither active nor inactive); the mix of calls is not that of the screen. Potencies beside an inconclusive call are fits to weak or partial responses and may not hold up. Calls of active or inactive are those of the source. Calls follow the shape of the dose curve; as a rule, active = well fitted cell-killing curve with a large enough effect; inconclusive = small, poorly fitted or top-dose-only effect, or effect the other way; inactive = no such curve, though single readings can be large or run the other way.
Assays:
[1] = Viability qHTS for spleen associated tyrosine kinase inhibitor (SYKi) naive MV4-11 cells (AID 1963823); settings: MV4-11 AML viability, CellTiter-Glo luminescence, 72 h; series mostly up to 45 µM; also: nearly all actives have a fitted effect of over 40% in size
Outline: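 Luminescence from CellTiter-Glo, developed 10 min at room temperature, gave viability of MV4-11 cells never exposed to SYK inhibitor. Cells (500/well) had been incubated with compounds for 72 hr under standard culture conditions.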

[2] = Viability qHTS for spleen associated tyrosine kinase inhibitor (SYKi) drug resistant MV4-11 cells (AID 1963824); also: nearly all actives have a fitted effect of over 35% in size
Outline: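 CellTiter-Glo luminescence, read 10 min after reagent addition, reports viability after a 72 hr compound exposure. Cells are an MV4-11 line made resistant to SYK inhibition, seeded at 500 per well onto compound-containing plates.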
Potency is read from the fitted curve at half-maximal effect; tags tell the direction and shape of the fitted curve.

SMILES	Potency [1]	Potency [2]
CCC(C)/C=C(C)/C=C/C1=CC2=CC(=O)C3(C)OC(C)(O)C(C(=O)OC)C3C2=CO1 (centres undefined)	inconclusive: 10 µM [cytotoxic, partial curve]	inconclusive: 7.09 µM [cytotoxic, partial curve]
CC1CC(=O)C2=C(O1)OC1(C)CCC3C(C)(C)C4OC4C(=O)C3(C)C1C2 (centres undefined)	inconclusive: 7.18 µM [cytotoxic, partial curve, poor fit]	inactive
C#CCN(Cc1cc2c(=O)[nH]c(C)nc2cc1Br)c1ccc(C(=O)NCc2cccnc2)cc1	inactive	inactive
CCOC(=O)c1csc(Nc2ccc(Cl)cc2)n1	inconclusive: 23.1 µM [cytotoxic, single point]	inconclusive: 18.4 µM [cytotoxic, single point]
CCOc1ccc(-n2c([C@@H](C)N(Cc3cccnc3)C(=O)Cc3ccc(OC(F)(F)F)cc3)nc3ncccc3c2=O)cc1	active: 18.4 µM	active: 16.4 µM
COc1cccc(C)c1C(=O)O[C@@H]1C[C@H](O[C@H]2[C@H](O)C[C@H](O[C@@H]3CCC[C@H]4[C@H]3C=C[C@@H]3CCCC/C=C/[C@H]5C=C(C(=O)O)[C@@H](C)C[C@@]56OC(=O)C(=C6O)OC(=O)[C@@]34C)O[C@@H]2C)O[C@H](C)[C@H]1O	inconclusive: 3.48 µM [cytotoxic, single point]	inconclusive: 4.37 µM [cytotoxic, partial curve, poor fit]
C/C=C/C=C/C=C/C(=O)O[C@@H]1C=C(CO)[C@](O)(CO)[C@@]2(C)CCCC(C)(C)[C@H]12	active: 16.1 µM	inconclusive: 12.8 µM [cytotoxic, single point]
